Experimental data taken from paper PMC4752221.
No constants are given. Whether binding was seen depends on the method and setting. Binding seen in cells or lysates may run through a third protein. Some entries that bind do so weakly or less than the wild type. Where a sequence is shown, tags or fusion partners need not be part of it.

By UniProt entry, the sequences of proteins in these tests, tags left out.
UniProt P40160: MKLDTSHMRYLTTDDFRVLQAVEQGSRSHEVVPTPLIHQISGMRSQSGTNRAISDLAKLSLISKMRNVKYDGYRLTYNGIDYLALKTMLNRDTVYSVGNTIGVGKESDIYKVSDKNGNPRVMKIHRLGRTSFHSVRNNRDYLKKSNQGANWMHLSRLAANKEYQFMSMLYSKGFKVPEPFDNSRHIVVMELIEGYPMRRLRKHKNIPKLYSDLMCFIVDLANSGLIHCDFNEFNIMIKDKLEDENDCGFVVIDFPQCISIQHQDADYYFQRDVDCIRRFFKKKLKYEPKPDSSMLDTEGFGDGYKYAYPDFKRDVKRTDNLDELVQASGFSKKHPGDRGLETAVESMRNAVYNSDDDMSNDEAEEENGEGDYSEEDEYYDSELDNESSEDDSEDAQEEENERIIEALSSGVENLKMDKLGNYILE

Target: T1, GFP-Dbp5 (S. cerevisiae) (UniProt P20449)
T1 sequence: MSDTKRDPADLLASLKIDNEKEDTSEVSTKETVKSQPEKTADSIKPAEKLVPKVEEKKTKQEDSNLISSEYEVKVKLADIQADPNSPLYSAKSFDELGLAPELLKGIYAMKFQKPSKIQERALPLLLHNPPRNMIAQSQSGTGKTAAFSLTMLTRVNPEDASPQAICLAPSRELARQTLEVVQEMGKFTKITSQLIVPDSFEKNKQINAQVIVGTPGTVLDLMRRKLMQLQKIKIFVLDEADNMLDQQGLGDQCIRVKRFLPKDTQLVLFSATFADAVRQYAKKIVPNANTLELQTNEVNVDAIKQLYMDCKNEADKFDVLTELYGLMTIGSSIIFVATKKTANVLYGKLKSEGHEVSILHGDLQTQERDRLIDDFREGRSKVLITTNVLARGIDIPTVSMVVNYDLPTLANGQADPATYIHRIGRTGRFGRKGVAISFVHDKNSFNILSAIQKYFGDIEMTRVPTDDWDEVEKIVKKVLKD
Test: co-IP; GFP-tagged bait on GFP-Trap_A beads from clarified yeast lysate, PBSKMT (0.5% Triton-X 100), 3 h at 4°C, samples treated with 0.2 mg/ml RNase A for 30 min at 4°C; Western blot; in some panels wild type and dbp5 mutant cells after a 1 h temperature shift

binding: binds
Substance: Rio2 (from UniProt P40160 1-425)
